Reference: the supplement of paper PMC3334620
Whole data set: some 33,000 sequences, median “E-score (-0.5 to 0.5)” near -0.016, cut for the highest 2% near 0.31. Some of the results follow.

These sequences were tested against Cst6 (UniProt P40535) (assay: PBM E-score (8-mer binding enrichment) (E-score (-0.5 to 0.5)); higher = stronger / more preferred TF binding; most listed sequences are background and not binding sites). Conditions: protein concentration: 200 nM; construct: GST-DNA-binding domain.
How it was run: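 Universal all-10-mer Agilent arrays, fresh or stripped once, were converted to double-stranded form by primer extension. GST-tagged yeast transcription factors from PURExpress in vitro transcription/translation, full-length or DNA-binding domain only, were applied at about 100-200 nM and detected with fluorescent anti-GST. After masliner normalisation, the Universal PBM Analysis Suite scored each ungapped eight-base word together with its reverse complement by E-score.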

Sequence	PBM E-score
GGAGCACC	-0.327
ATGATATA	0.31
CTACTCCC	-0.156
AGGTGTAT	0.11
ATAGCACA	0.0396
ACGGTTAC	0.104
CGTAAACG	0.132
CTTGGGAC	-0.246
CCGCAATC	0.00752
AGAGTCTC	-0.245
CCTTAACA	-0.00162
AGGGGATA	-0.17
ATTTAGTG	0.199
TAATAGCA	0.0705
GCCCCCGA	-0.373
ATTTCTTA	0.159
ACTGTTGG	-0.254
AGACGAAT	0.0634
CGATGAAG	0.0389
AAGCATCG	0.0512
ATCTTCCG	0.0604
ACCGATCT	-0.175
ATACAAAT	0.285
GCCAACGC	-0.0319
GATCAATC	0.0348

Sequence	PBM E-score
AAACAGGA	0.0722
CAGCGCTG	0.0487
CCGTAGGA	-0.0533
CCCTTTAG	-0.3
CTACTAGA	-0.00554
AAGACGAA	0.0158
TAATGCAA	0.209
ATCTCTCC	-0.126
CAAATATG	0.191
CTAACCAG	-0.086
ATACGAAG	0.102
AAATAAAC	0.259
CCGACAGC	-0.315
CTACCGTA	0.0736
ACCGTTTC	0.0295
AAGTCTGT	-0.0295
GACCGCCC	-0.326
CGGGTTGC	-0.00711
CTCAGCAC	-0.177
CACCAGCA	0.0999
ACGCAACA	0.276
GATCACCA	0.147
CCGGGGTC	-0.207
ATCAAGGC	-0.114
ATGGCTGG	-0.248

Sequence	PBM E-score
ACATCCGT	0.0894
GTTCCCTA	-0.169
ACTACGAA	0.114
GCTACCTA	0.0891
GTGATGCA	0.383
GTGGAGAA	-0.151
TACGCGTA	-0.0895
CCTTCGCA	-0.0803
CGGGTTGA	-0.14
CCTGGAAA	-0.0989
AAACGGCC	0.084
ATGGGTAC	0.0213
TAAAGCGA	0.0693
AACCATCT	-0.174
AGTTTAGG	-0.159
CACGATGC	0.0599
GAGCGGTA	-0.027
CTTCGTCC	-0.155
ACAAAAGA	0.29
AGTCCGCA	-0.0826
CGTCCGTC	-0.218
TCTTGTCA	0.2
CGATAATA	0.143
TAAATTTA	0.237
AACGTCCG	-0.144

Sequence	PBM E-score
GATCACTA	0.0963
AACGTATA	0.215
CGCATGAG	-0.162
ATTACAAT	0.196
ATTCGTCG	0.0126
TGGTGTAA	0.1
CACTCCCA	-0.148
AAACTACG	0.0181
AACTAAAA	0.233
CGGAAAAC	-0.056
CATAGATC	-0.0174
CGTTCGAA	0.233
AATGCAGA	0.0493
CCCCTCGC	-0.276
GGACTACA	-0.197
GCTGATAA	0.0863
ATAGCAGG	-0.0184
AACTCAGG	-0.108
CGCTGTAG	-0.126
CGTCTTAG	-0.136
AGGAGATA	-0.0562
GGGCCGTA	0.116
ACGCGGAG	-0.0149
CGGTCCCC	-0.411
GACCAGAC	-0.163

Sequence	PBM E-score
CTCGTCAG	0.127
CCGCTCTC	-0.132
ACATGCCA	-0.0166
AATAATTC	0.205
ATCCCTGC	-0.24
ACCCAGAA	0.1
AAATTAGG	0.164
AGGACTAC	-0.335
AAGAGTCC	-0.322
ATTTAGGA	0.0979
CAGGCACC	-0.213
GCCTCTGA	-0.042
ATAATGAA	0.259
CGCCTTGC	0.195
TGACGTAA	0.499
AGGATTTG	-0.0475
CCGCCTGC	-0.123
CCACTCAA	0.145
ATATGACA	0.304
CTACCACA	-0.155
CATGGCGA	-0.0864
ATGTTGGG	-0.11
AGGAAGGA	-0.227
AACCCTTA	0.0775
TACAGCAA	-0.00029

Sequence	PBM E-score
CGGGTTCC	-0.141
AACTGAAC	-0.122
CCAGCTGA	-0.0684
CATAAAAC	0.0797
GGGGGAGA	-0.268
ATTCGACA	-0.106
AGCCGCGG	0.195
AGGACGGC	-0.0173
GCTAGGCA	-0.246
ACACCTTC	-0.0331
ATCGCAGC	-0.00142
GCTGTAAA	0.00837
ATACACAA	0.154
AAACGGGG	-0.0666
CCGGCAGC	-0.237
AGGCTCCG	-0.0345
CTACGCAG	-0.00198
CGTCTGGC	-0.143
AGTGGCTC	-0.12
CATCTGTA	-0.00016
AAGAACTA	0.116
AGGTACAG	-0.186
CACCAACA	-0.111
TCGAGTCA	-0.0123
GATATTGA	0.12

Sequence	PBM E-score
TAGAAACA	0.13
GAATTTAA	0.141
GTCGCCAA	-0.179
TCACAACA	0.268
CTAGGACA	-0.161
ACAATACT	0.197
AAGCTTCA	-0.185
CCTATAGG	-0.236
CACCGCCC	-0.0408
CTTGCTGA	-0.106
CGAGTGTA	-0.114
CGCGAGTC	-0.165
ACACGGAT	0.162
GCAAACCC	-0.27
GTAAGGGA	0.00326
AAACGGGT	-0.00178
CTTAATCA	0.137
AACGTTGC	-0.0467
AGCAGCGA	0.0103
ACGACATA	0.257
GAAACGTA	0.126
CCGAGGAC	-0.2
